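Compound exposure: 48 hours, 5 concentrations, 96-well plates. Here, GI50 denotes the concentration required for 50% inhibition of growth.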 The source made the active and inactive calls. No stated cut-off is given here; in the data, active = GI50 up to about 1.1 µM and inactive = higher.
tested on: NCI-H322M; experiment: growth of human tumour cells (NCI), 48 h

Row | SMILES | GI50
1 | Cc1cccc2c(N)c3cccc(C(=O)NCC[N+](C)(C)Cc4ccccc4[N+](=O)[O-])c3nc12 | inactive: 15 µM
2 | O=c1ccn([C@H]2CSC[C@@H](CO)C2)c(=O)[nH]1 | inactive: > 100 µM
3 | CN1CCC(C(=O)NNc2ccccc2)CC1 | inactive: > 52 µM
4 | O=C(O)c1cc(C(=O)O)cc(N2C(=O)c3ccccc3C2=O)c1 | inactive: > 100 µM
5 | O=c1ncccn1C1OC(CO)C(O)C1O (centres undefined) | inactive: > 100 µM
6 | OCc1ccc2[n+](c1)CCC1c3ccccc3NC21 (centres undefined) | inactive: 288 µM
7 | O=S(=O)(c1ccccc1)C(c1ccc2ccccc2n1)S(=O)(=O)c1ccccc1 | inactive: > 100 µM
8 | O=C(O)C(Cc1cccs1)C(=O)O | inactive: > 100 µM
9 | O=C1CCCC(=O)N1n1c(Cc2ccc(Cl)cc2)n[nH]c1=O | inactive: > 100 µM
10 | CN(Cc1ccccc1)C(=S)S [SODIUM BENZYL(METHYL)CARBAMODITHIOATE] | inactive: 47.8 µM
11 | Cc1csc2nc(-c3ccncc3)cn12 | inactive: > 100 µM
12 | CCOC1=C/C(=N\Nc2ccc([N+](=O)[O-])cc2)CCC1 | inactive: > 100 µM
13 | CSc1cc(N)ccc1/N=N/c1ccc(S(N)(=O)=O)cc1 | inactive: 63.1 µM
14 | CCOC(=O)/C(Br)=C1\OC(=O)c2ccccc2-c2ccccc21 | inactive: 63.7 µM
15 | C=C(CCOC)CCC1CCCCC(=C)[C@H]1O (some centres undefined) | inactive: > 100 µM
16 | O=C(CCCC(=O)N1CC(CCl)c2ccc([N+](=O)[O-])cc21)N1CC(CCl)c2ccc([N+](=O)[O-])cc21 (centres undefined) | inactive: > 100 µM
17 | O=C(O[C@@H](/C=C/c1ccccc1)P1(=O)N(Cc2ccccc2)[C@H]2CCCC[C@@H]2N1Cc1ccccc1)c1ccccc1 | inactive: 6.19 µM
18 | C=C(C)C(=O)/N=C(\N)NC#N | inactive: 179 µM
19 | Cc1ccc(S(=O)(=O)ON/N=C2/C3OC3[C@@H]3CCCC[C@H]23)cc1 (some centres undefined) | inactive: > 100 µM
20 | CCc1cccc(CC)c1NC(=O)C(C#N)C1=C(Cl)C(=O)c2ccccc2C1=O (centres undefined) | inactive: 19.8 µM
21 | Cc1ccc2[nH]c3c(c2c1)C1CCC(C(C)(C)C)CC1C1C(=O)N(c2ccc4c(c2)OCO4)C(=O)C31 (centres undefined) | inactive: 5.06 µM
22 | C[C@]12CC[C@H]3[C@@H](CCC4=CC(=O)CC[C@@]43C)[C@@H]1CC[C@@H]2C(=O)Nc1ccc([N+](=O)[O-])c(C(F)(F)F)c1 | inactive: 18.1 µM
23 | CCOC(=O)C(C(=O)OCC)=C1NC2(c3ccccc3Nc3ccc(C)cc32)C(C#N)S1 (centres undefined) | inactive: 15.2 µM

Row | SMILES | GI50
24 | Cc1c2ccncc2c(C)c2c1[nH]c1ccc(Oc3ccccc3)cc12 | inactive: 7.41 µM
25 | CC(=O)N(C(C)=O)c1cc2c3c(c1)CCCN3CCC2 | inactive: > 10 µM
26 | COc1ccc2nc(-c3ccccn3)cc(O)c2c1 | inactive: 46.6 µM
27 | CC(C)[Si](OC1=CCCCCC12C(=O)N(C)c1ccccc12)(C(C)C)C(C)C (centres undefined) | inactive: 18.9 µM
28 | CCOC(=O)N1CCc2cc(OC)c(OC)c3c2C1CC3=O (centres undefined) | inactive: > 100 µM
29 | Cn1c([C@H](C#N)c2ncccc2[N+](=O)[O-])nc2ccccc21 | inactive: > 100 µM
30 | CC1=C(c2cc(C(=O)Nc3cccc(C(F)(F)F)c3)ncn2)Sc2ccccc2N1 | inactive: > 100 µM
31 | O=c1c2cc(Cl)ccc2n2nnc3ccc(NCCNCCO)c1c32 | active: 1.04 µM
32 | CC(c1ccccc1)N1O[C@]12CC[C@@]1(C)C(CCCC13OCCO3)C2 (some centres undefined) | inactive: > 100 µM
33 | S=C1NCCN1 | inactive: > 100 µM
34 | Cc1cc(C)c(C(=O)O)c(N)c1O | inactive: > 100 µM
35 | C=CC(Br)(CBr)CCC(Cl)C(C)C (centres undefined) | inactive: 6.92 µM
36 | CC(=O)OC12c3ccccc3C1CCCC21OCCCO1 (centres undefined) | inactive: > 100 µM
37 | CC1(C)C(=O)C2(N)CCC1C2 (centres undefined) | inactive: > 100 µM
38 | NC1=C(c2nc(-c3ccccc3)cs2)C(c2ccco2)c2c(c3ccccc3oc2=O)O1 (centres undefined) | inactive: > 100 µM
39 | CC(C)C(Sc1nc(-c2ccccc2)c(-c2ccccc2)[nH]1)C(=O)N/N=C/c1ccc([N+](=O)[O-])cc1 (centres undefined) | inactive: 22.9 µM
40 | O=C(O)C1=C(C(=O)O)Oc2ccccc2O1 | inactive: > 100 µM
41 | COc1ccc2c(c1)CCc1cnn(C3OC(COC(C)=O)C(OC(C)=O)C(OC(C)=O)C3OC(C)=O)c1-2 (centres undefined) | inactive: > 100 µM
42 | CN(C)c1ccc2c(NCCCCCCNc3ccnc4cc(N(C)C)ccc34)ccnc2c1 | inactive: 19 µM
43 | COc1ccc(/C(Cl)=C(\C=O)c2ccc(Cl)c(Cl)c2)cc1 | inactive: 14 µM
44 | COC(=O)C1=C(C)NC(C)=C(C(=O)OC)C1c1ccc(NO)cc1 | inactive: 32 µM
45 | Cc1ccc(NC(=O)C(=O)C2C(=O)NC(=O)NC2=O)c(C)c1 | inactive: > 100 µM
46 | O=C(Nc1ccc(Cl)cc1C(F)(F)F)C(=O)C1CCCS1(=O)=O (centres undefined) | inactive: > 100 µM

Row | SMILES | GI50
47 | Cc1ccc(S(=O)(=O)OC2=C/C(=N\c3onc(C)c3C)c3ccccc3C2=O)cc1 | inactive: 45 µM
48 | CC1C/C(=N\N(C)C)C(C#N)(C#N)C1(C#N)C#N (centres undefined) | inactive: > 42.5 µM
49 | O=C(CSc1nnc(Cc2ccccc2)o1)Nc1ccc(Cl)cc1 | inactive: > 100 µM
50 | O=C(Nc1ccccc1-c1nc2ccccc2[nH]c1=O)c1ccccc1 | inactive: 23.5 µM
51 | CCOP(=O)(OCC)C(c1ccccc1)N(C(=O)NC(F)(F)F)c1cccc(F)c1 (centres undefined) | inactive: > 100 µM
52 | CC1(Br)Cc2ccccc2C1=O (centres undefined) | inactive: 12.9 µM
53 | CC12C(=O)CC(CC1=O)C2(C)C | inactive: > 100 µM
54 | CC(C)CC(NC(=O)C(C)(CI)Cc1ccccc1)C(=O)Nc1ccccc1 (centres undefined) | inactive: > 100 µM
55 | COC(=O)C1=C(C)C(=O)C2(CCCCCC2C(=O)OC)C1 (centres undefined) | inactive: > 100 µM
56 | C/C(=N\O)c1ccc(Nc2c3ccccc3nc3occc23)cc1 | inactive: 5.87 µM
57 | CCN(C1=CC(=O)NC2CCCCN12)c1ccccc1 (centres undefined) | inactive: > 100 µM
58 | CCN1C2=NCCN2S(=O)(=O)c2ccccc21 | inactive: > 100 µM
59 | NC(=O)c1c[se]c(C2OC(COP(=O)(O)CP(=O)(O)OCC3OC(n4cnc5c(N)ncnc54)C(O)C3O)C(O)C2O)n1 (centres undefined) | inactive: > 100 µM
60 | O=C(N/N=C\c1cccc2c([N+](=O)[O-])cccc12)Nc1ccccc1 | inactive: 11.9 µM
61 | O=C1c2cccc(O)c2C(=O)c2c(OC3OC(CO)C(O)C(O)C3O)cccc21 (centres undefined) | inactive: 32.6 µM
62 | NC(=S)N/N=C(\CCC(=O)Nc1ccccc1[N+](=O)[O-])CC(=O)c1ccco1 | inactive: > 100 µM
63 | O=C1CSC(/C=C/c2ccccc2)N1c1nc2cc3sc(N4C(=O)CSC4/C=C/c4ccccc4)nc3cc2s1 (centres undefined) | inactive: 13.7 µM
64 | Nc1cnc2c(c1)c(=O)nc1n2CCS1 | inactive: > 100 µM
65 | COC(OC)(c1ccccc1)C(I)I | inactive: 29 µM
66 | COC(=O)/C=C1/OC(c2ccc(OC)cc2)=C(Cl)C1=O | inactive: 21.9 µM
67 | O=c1[nH]nc(Nc2ccc(Cl)cc2)c2nnn(-c3ccc([N+](=O)[O-])cc3)c12 | inactive: 29.6 µM
68 | O=c1c2ccccc2nc(Nc2cccc(Cl)c2)n1/N=C/C=C/c1ccccc1 | inactive: 78.9 µM
69 | CCCCCCCCCCCCCCCC(=O)OC(COC(C)=O)CO[PH](=O)O (centres undefined) | inactive: 85.7 µM

From ChEMBL document CHEMBL1201862, “PubChem BioAssay data set” (2004)
